Experimental data taken from PubChem BioAssay AID686978 (National Center for Advancing Translational Sciences (NCATS), 2013).
The campaign covered roughly 420,000 compounds. About 64,000 (15%) were called active. The inconclusive results got no clear call from the source; some entries with a clear call stand among them for comparison. The call rests on the fitted dose curve; in most records, active means well fitted inhibition curve with a large enough effect; inconclusive means small, poorly fitted or top-dose-only effect; inactive means flat fitted curve, though single readings scatter. Potencies of inconclusive entries are left out as doubtful fits.

test: qHTS for Inhibitors of human tyrosyl-DNA phosphodiesterase 1 (TDP1): qHTS in cells in absence of CPT; details: DT40 Tdp1-/- hTDP1 cells, no CPT, ATP luminescence, 48 h; activity change, negative = growth inhibition: at 46.2 µM (top of the series); further: nearly all actives have a fitted effect of over 55% in size
Outline: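 Chicken DT40 Tdp1-/- cells complemented with human TDP1, screened without camptothecin (DMSO vehicle only), 400 cells/well. Compounds pin-transferred, cells incubated at 37 °C for at least 48 hr. Growth read as ATP-dependent luminescence (CellTiter-Glo, 30 min at RT).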
On the % scale 0 is the no-effect control and ±100 the full control effect; potency means the concentration at half of the fitted maximal effect; tags describe the fitted curve by direction and shape.

Row | SMILES | activity change, negative = growth inhibition | Potency
1 | CCOC(=O)c1cnc(-n2nc(C)cc2C)nc1NNc1nc(C)cc(C)n1 | inactive: -22.6% | 
2 | O=C(CN1CCCCC1)NNc1nc(-c2ccccc2)c2cc(Cl)ccc2n1 |  | inconclusive [inhibitor, single point]
3 | CC1=C(C(=O)Nc2ccccc2C(=O)NCCCOC(C)C)SCCO1 | inactive: -7.14% | 
4 | COc1cc(C(=O)Nc2nccs2)ccc1OCc1c(C)noc1C |  | inconclusive [inhibitor, single point]
5 | COc1cc(C(O)P(=O)(OCCC(C)C)c2ccc(N(C)C)cc2)cc(OC)c1OC (stereo not given) |  | inconclusive [inhibitor, single point]
6 | C=CCn1c2ccccc2c2nnc(SCC(=O)Nc3c(C)n(C)n(-c4ccccc4)c3=O)nc21 |  | inconclusive [inhibitor, single point]
7 | COc1ccc(-c2nnc(SCC(=O)c3ccc(C)o3)o2)cc1 |  | inconclusive [inhibitor, single point]
8 | CC1=C(C(=O)N2CCCCC2)C(c2cccc(Cl)c2)n2c(nc3ccccc32)N1 (stereo not given) |  | inconclusive [inhibitor, single point]
9 | CCN(CC(=O)Nc1c(F)cccc1F)C(=O)c1ccc(C2SCCS2)cc1 |  | inconclusive [inhibitor, partial curve, poor fit]
10 | Cc1ccc(NC(=O)c2ccc(NC(=O)C3CCCC3)cc2)c(C)c1 |  | inconclusive [inhibitor, partial curve]
11 | O=C(COc1ccccc1[N+](=O)[O-])c1ccccc1 |  | active: 5.17 µM
12 | COc1ccc(OC)c(CNC(=O)c2cc3ccc4cccnc4c3[nH]2)c1 |  | active: 25.9 µM
13 | CCN(CC)c1cc(C)c2cc(NC(=O)c3ccccc3F)ccc2n1 |  | active: 29.1 µM
14 | N#Cc1ccc(-c2cccs2)nc1SCc1cccnc1 |  | active: 0.411 µM
15 | CCOC(=O)Nc1nnc(-c2cccc(OC)c2)s1 | inactive: -24.1% | 
16 | CCOc1cc(/C=N/NC(=O)c2nn(C)cc2Br)ccc1OCc1ccccc1 |  | active: 10.3 µM
17 | CCOC(=O)C1(CCOC)CCN(C/C=C/c2ccccc2OC)CC1 |  | active: 10.3 µM
18 | CCn1c(C)c(C)c2cc(C(=O)Nc3cccc(Cl)c3)ccc21 |  | active: 18.4 µM
19 | O=P(c1ccccc1)(c1ccccc1)c1cc(Br)cc(Br)c1OCCO | inconclusive: -31.7% [inhibitor] | 
20 | CCOC(=O)c1c(NC(=O)CN2C(=O)NC3(CCCC3)C2=O)sc(C)c1CC |  | inconclusive [inhibitor, single point]
21 | Cc1ccc(OCc2ccc(C(=O)N3CCCC3)o2)cc1C |  | inconclusive [inhibitor, partial curve]
22 | O=C(CCCn1c(SCc2cc(=O)n3ccccc3n2)nc2ccccc2c1=O)NCC1CCCO1 (stereo not given) | inconclusive: -34.3% [inhibitor] | 
23 | Cc1ccsc1/C=N/NS(=O)(=O)c1ccc([N+](=O)[O-])cc1 | inactive: -18.1% | 
24 | CN(C)c1ccc(/C=C2/CCCc3c2nc2ccccc2c3C(=O)O)cc1 | inactive: -19.6% | 

Row | SMILES | activity change, negative = growth inhibition | Potency
25 | O=c1c(Cl)c(N2CCC3(CC2)OCCO3)cnn1C12CC3CC(CC(C3)C1)C2 |  | active: 13 µM
26 | CCc1ccc(/C=C2\SC(=S)N(CCCC(=O)Nc3ccccc3C(=O)O)C2=O)cc1 | inactive: -1.68% | 
27 | COc1ccc(/C=C/C(=O)NC(=S)Nc2ccccn2)cc1 | inactive: 3.2% | 
28 | CSC1=NCCN1CCOc1ccccc1 | inactive: -13.8% | 
29 | COc1ccccc1-c1nnc(C2CCN(S(=O)(=O)c3ccccc3[N+](=O)[O-])CC2)o1 | inactive: -12.9% | 
30 | Cc1nn(Cc2ccc(Cl)cc2)c(C)c1NC(=O)c1ccc([N+](=O)[O-])cc1 |  | inconclusive [inhibitor, single point]
31 | CC(=O)NCCC1CCCCN1Cc1nc(Cc2cccc(C(F)(F)F)c2)no1 (stereo not given) | inactive: -5.71% | 
32 | COc1cc(/C=C/C(=O)N2CCN(c3n[nH]c(=O)[nH]c3=O)CC2)cc(OC)c1OC | inactive: -13.2% | 
33 | CSc1ccc(Cn2c(C)c(C(=O)NCc3cccc(C(F)(F)F)c3)sc2=O)cc1 |  | inconclusive [inhibitor, single point]
34 | CCOC(=O)C1CCCN(C(=O)c2cc3c(=O)n(C)c4ccccc4c3n2C)C1 (stereo not given) |  | inconclusive [inhibitor, single point]
35 | CNC(=O)/C=C/c1cc(C(=O)c2ccc(Cl)cc2Cl)cn1C |  | inconclusive [inhibitor, single point]
36 | CCCSc1ccc([C@@H]2[C@@H]3C(=O)N(C)C(=O)[C@@H]3[C@]3(C(=O)OC)CCCCN23)cc1OC |  | active: 23.1 µM
37 | CC(NC(=O)COc1ccc(-c2nnco2)cc1)c1ccc(Cl)cc1Cl (stereo not given) |  | inconclusive [inhibitor, single point]
38 | CC(C)CC(=O)C1CCCN(C(=O)c2ccc3oc(Cc4ccccc4)nc3c2)C1 (stereo not given) |  | active: 23.1 µM
39 | CCOC(=O)c1cnc(-n2nc(C)cc2C)nc1Oc1ccccc1F |  | inconclusive [inhibitor, single point]
40 | COc1ccccc1NC(=O)COc1ccc(/C=N/NC(=O)c2cccnc2)cc1 |  | inconclusive [inhibitor, single point]
41 | CC(=O)c1cc(C#N)c(Oc2cc(C)cc(C)c2)nc1C |  | inconclusive [inhibitor, single point]
42 | O=C(c1cc2ccccc2o1)N1CCN(Cc2nc3ccccc3s2)CC1 |  | inconclusive [inhibitor, single point]
43 | Cc1ccc(-c2csc(=S)n2CC(=O)OCC(=O)NCc2ccco2)cc1 |  | inconclusive [inhibitor, single point]
44 | O=C(CSCc1ccc(Cl)cc1)Nc1ccc(S(=O)(=O)N2CCCCCC2)cc1 |  | inconclusive [inhibitor, single point]
45 | Cc1ccc(S(=O)(=O)N(C)c2ccc(C(=O)N3CCc4ccccc4C3)cc2)cc1 |  | inconclusive [inhibitor, single point]
46 | COc1ccc(CCNc2cc(N3CCN(C(=O)c4ccccc4F)CC3)ccc2[N+](=O)[O-])cc1OC |  | active: 5.17 µM
47 | CCN(CC)CC#CC(C)OCOCC#CCOC (stereo not given) | inactive: -0.717% | 
48 | Cc1noc(C)c1COc1ccccc1C(=O)NC(C)c1ccc(Cl)cc1 (stereo not given) |  | inconclusive [inhibitor, single point]

Row | SMILES | activity change, negative = growth inhibition | Potency
49 | Cc1cccc(N(CC(=O)N=Nc2c(O)[nH]c3ccccc23)S(C)(=O)=O)c1C |  | inconclusive [inhibitor, single point]
50 | O=c1c2oc3ccccc3c2n(Cc2ccccc2)c(=O)n1Cc1ccco1 | inactive: -21% | 
51 | O=C(c1ccco1)N1CCN(C(=O)c2cnn3c(C(F)(F)F)cc(-c4cccs4)nc23)CC1 |  | inconclusive [inhibitor, partial curve]
52 | COc1ccc(NS(=O)(=O)c2csc(C(N)=O)c2)cc1 | inactive: -29.8% | 
53 | COc1ccc(N/C(=N\c2nc(C)cc(C)n2)NC(=O)C(C)C)cc1OC |  | inconclusive [inhibitor, partial curve]
54 | OCCN1CCN(c2ncnc3c2c(-c2ccccc2)cn3-c2ccc(Br)cc2)CC1 |  | inconclusive [inhibitor, single point]
55 | Nc1ncnc2c1ncn2[C@@H]1O[C@H](CCC(=O)NCc2ccccc2)[C@@H](O)[C@H]1O | inactive: 1.6% | 
56 | CCN(CC)c1ccc(/C=C/c2c(C)cnc3ccccc23)cc1 |  | active: 11.2 µM
57 | Cc1noc(C)c1S(=O)(=O)N(C)C[C@H]1Oc2ccc(NC(=O)NC(C)C)cc2C(=O)N([C@H](C)CO)C[C@@H]1C | inactive: 16.3% | 
58 | CCCCn1c(O)c(N=Nc2ccccc2O)c2ccccc21 |  | inconclusive [inhibitor, single point]
59 | CC(=O)c1sc(NC(=O)CCCc2nc3ccccc3c(=O)[nH]2)nc1-c1ccccc1 |  | inconclusive [inhibitor, single point]
60 | O=C(NC1CC1)[C@@H]1CSC2c3ccccc3C(=O)N21 (stereo not given in full) | inactive: 11.8% | 
61 | COc1ccccc1C(=O)C1CCCN(Cc2cn[nH]c2C2CCCCC2)C1 (stereo not given) |  | inconclusive [inhibitor, single point]
62 | CCCCNC(=O)C1CCN(Cc2ccc(OCc3ccccc3)cc2)CC1 |  | inconclusive [inhibitor, single point]
63 | COC(=O)c1c(C)[nH]c(C(=O)OCC(=O)N2c3ccccc3NC(=O)C2(C)C)c1C |  | inconclusive [inhibitor, single point]
64 | O=C(Cn1nnc2sc(-c3ccccc3)cc2c1=O)Nc1cccc(C(F)(F)F)c1 |  | inconclusive [inhibitor, single point]
65 | Cc1ccc(NC(=O)Cn2c(=O)ccn(Cc3ccccc3)c2=O)cc1S(=O)(=O)N1CCOCC1 | inactive: -0.8% | 
66 | O=C(CSc1ccc(Cl)cc1)N1CCN(c2ccc([N+](=O)[O-])cc2Cl)CC1 |  | active: 18.4 µM
67 | CC(C)(C)c1ccc(OCC(=O)N2CCN(c3ccccn3)CC2)cc1 |  | inconclusive [inhibitor, single point]
68 | CN(c1ccccc1)S(=O)(=O)c1ccc(C(=O)NCC2CCCO2)cc1 (stereo not given) |  | inconclusive [inhibitor, single point]
69 | COc1cccc(/C=N/NC(=O)c2nnn(-c3nonc3N)c2CN(C)C2CCCCC2)c1 |  | inconclusive [inhibitor, single point]
70 | C[C@H](CO)N1C[C@H](C)[C@H](CN(C)S(=O)(=O)c2ccc(Cl)cc2)OCc2cnnn2CCCC1=O |  | inconclusive [inhibitor, partial curve, poor fit]
